Measured values: PubChem BioAssay AID504333 (National Center for Advancing Translational Sciences (NCATS), 2011)
Out of some 360,000 compounds screened, about 16,000 (4.4%) were called active. Inconclusive means that the source gave no clear call. Such entries were picked first, then a sample of the others. Calls come from the whole dose curve; as a rule, active = well fitted inhibition curve with a large enough effect; inconclusive = small, poorly fitted or top-dose-only effect; inactive = no such curve, though single readings can be large or run the other way. Potencies of inconclusive entries are doubtful fits and often do not repeat.

Molecular target: Bromodomain adjacent to zinc finger domain protein 2B (Homo sapiens) (UniProt Q9UIF8)
Chain of UniProt Q9UIF8 (Q9UIF8 whole entry, looked up, the tested form may be a part): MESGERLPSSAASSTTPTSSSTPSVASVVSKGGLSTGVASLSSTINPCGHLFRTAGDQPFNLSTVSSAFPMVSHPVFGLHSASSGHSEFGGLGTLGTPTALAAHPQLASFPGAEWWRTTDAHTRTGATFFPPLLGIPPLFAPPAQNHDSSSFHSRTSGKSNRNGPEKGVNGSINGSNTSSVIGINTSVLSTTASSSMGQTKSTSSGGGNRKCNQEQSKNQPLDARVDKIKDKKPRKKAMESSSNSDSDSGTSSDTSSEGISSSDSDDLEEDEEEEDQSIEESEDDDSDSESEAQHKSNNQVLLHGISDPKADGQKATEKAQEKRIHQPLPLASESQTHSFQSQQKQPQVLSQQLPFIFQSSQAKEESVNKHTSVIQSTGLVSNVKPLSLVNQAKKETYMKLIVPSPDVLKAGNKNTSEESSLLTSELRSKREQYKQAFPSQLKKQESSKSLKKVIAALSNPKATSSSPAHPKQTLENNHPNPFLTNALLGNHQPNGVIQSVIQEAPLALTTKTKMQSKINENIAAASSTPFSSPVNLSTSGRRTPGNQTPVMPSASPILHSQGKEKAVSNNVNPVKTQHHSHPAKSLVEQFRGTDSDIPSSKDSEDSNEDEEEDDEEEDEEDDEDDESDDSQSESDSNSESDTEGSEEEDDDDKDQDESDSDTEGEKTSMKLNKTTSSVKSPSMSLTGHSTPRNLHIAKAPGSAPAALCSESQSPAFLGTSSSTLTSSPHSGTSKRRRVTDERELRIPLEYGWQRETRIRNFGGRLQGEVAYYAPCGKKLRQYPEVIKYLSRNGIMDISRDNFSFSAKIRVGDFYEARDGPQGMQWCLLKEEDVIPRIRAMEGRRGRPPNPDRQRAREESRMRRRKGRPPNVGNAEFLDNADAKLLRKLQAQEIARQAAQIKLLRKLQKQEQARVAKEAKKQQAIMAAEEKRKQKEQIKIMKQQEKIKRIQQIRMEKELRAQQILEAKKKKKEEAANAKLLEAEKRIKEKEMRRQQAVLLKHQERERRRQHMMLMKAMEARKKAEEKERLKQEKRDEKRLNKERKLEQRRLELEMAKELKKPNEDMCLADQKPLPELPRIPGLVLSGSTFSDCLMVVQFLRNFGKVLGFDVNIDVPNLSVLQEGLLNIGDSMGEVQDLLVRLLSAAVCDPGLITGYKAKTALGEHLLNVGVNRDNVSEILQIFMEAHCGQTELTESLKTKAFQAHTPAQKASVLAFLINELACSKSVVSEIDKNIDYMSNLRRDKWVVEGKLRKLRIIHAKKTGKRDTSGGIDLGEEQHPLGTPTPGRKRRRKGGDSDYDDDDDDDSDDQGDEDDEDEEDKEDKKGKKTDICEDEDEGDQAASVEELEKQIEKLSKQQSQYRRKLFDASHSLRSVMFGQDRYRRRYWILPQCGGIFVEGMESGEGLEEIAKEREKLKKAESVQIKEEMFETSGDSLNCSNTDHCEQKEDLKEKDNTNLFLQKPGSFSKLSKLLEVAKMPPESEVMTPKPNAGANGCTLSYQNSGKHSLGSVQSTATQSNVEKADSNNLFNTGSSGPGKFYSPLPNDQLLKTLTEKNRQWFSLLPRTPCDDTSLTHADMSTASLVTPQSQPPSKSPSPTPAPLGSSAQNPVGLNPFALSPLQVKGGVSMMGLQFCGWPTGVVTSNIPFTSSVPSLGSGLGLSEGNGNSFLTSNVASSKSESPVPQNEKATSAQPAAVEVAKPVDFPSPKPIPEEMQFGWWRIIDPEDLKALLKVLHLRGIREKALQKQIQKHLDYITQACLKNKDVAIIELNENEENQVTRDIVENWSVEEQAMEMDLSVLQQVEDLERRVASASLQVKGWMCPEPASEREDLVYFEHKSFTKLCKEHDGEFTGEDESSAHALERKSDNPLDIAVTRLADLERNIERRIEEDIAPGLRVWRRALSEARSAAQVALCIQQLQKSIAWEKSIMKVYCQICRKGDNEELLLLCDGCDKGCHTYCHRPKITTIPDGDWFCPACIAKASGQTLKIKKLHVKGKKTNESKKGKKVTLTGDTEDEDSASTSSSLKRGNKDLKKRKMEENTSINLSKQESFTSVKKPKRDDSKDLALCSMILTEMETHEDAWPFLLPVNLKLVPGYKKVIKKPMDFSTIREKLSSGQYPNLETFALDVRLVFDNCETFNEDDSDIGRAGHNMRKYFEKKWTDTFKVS
Assay: qHTS Assay for Inhibitors of BAZ2B; note: nearly all actives have a fitted effect of over 60% in size
Details: AlphaScreen BAZ2B-H3K14Ac peptide displacement; activity change, negative = inhibition: at 114 µM (top of the series) unless noted
Outline: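 Inhibition is scored as reduced AlphaScreen emission. The BAZ2B/b-H3(5-23)K14Ac complex (50 nM each) in PBS pH 7.4, 0.01% Tween-20 meets compound (up to 110 uM) for 30 min at RT before bead addition.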
% is set by controls: 0 for no effect and ±100 for the full control effect; potency is the fitted concentration of half-maximal effect; tags give direction and shape of the fitted curve.

| Structure (SMILES) | Potency | activity change, negative = inhibition |
| --- | --- | --- |
| O=C(N/N=C/c1ccco1)c1cccc(N2Cc3ccccc3C2)c1 | active: 50.1 µM |  |
| O=C(O)c1ccc(N/N=C/c2cc3cc4c(cc3nc2Cl)OCCO4)cc1 | active: 79.4 µM |  |
| Cc1cccc(Cn2c(C(=O)OC(C)C)cc3c2ccn3C)c1 | inconclusive: 50.1 µM [inhibitor, single point] |  |
| Cc1ccc(S(=O)(=O)ON=C2CCN(S(=O)(=O)c3ccccc3)CC2)cc1 | inconclusive: 15.8 µM [inhibitor, partial curve, poor fit] |  |
| COc1ccc(N2CCN(c3nc(NC(C)(C)C)nc(N4CCCCC4)n3)CC2)cc1 | active: 3.16 µM |  |
| CCCCN(CCCC)C(=O)C1CC=CCC1C(=O)O (stereo not given) | inconclusive: 79.4 µM [inhibitor, single point] |  |
| O=C(CSc1nnc(CNc2ccc(F)cc2)o1)N1c2ccccc2Sc2ccccc21 | inconclusive: 25.1 µM [inhibitor, partial curve] |  |
| COCCN(C(=O)c1cc2c(s1)CCCCC2)c1c(N)n(Cc2ccccc2)c(=O)[nH]c1=O |  | inactive: 3.22% |
| COc1ccccc1-c1nc(SCC(=O)NCc2ccc(C)cc2)c2c(=O)n(C)c(=O)n(C)c2n1 |  | inactive: 6.61% |
| O=C1NN(c2ccc(Cl)cc2)C(=O)/C1=C\c1ccc(-c2cccc(C(=O)O)c2)o1 | active: 56.2 µM |  |
| O=C(Nc1ccccc1N1CCCC1)c1ccc(Cl)c(S(=O)(=O)N2CCOCC2)c1 | inconclusive: 89.1 µM [inhibitor, single point] |  |
| COc1ccc(CCn2c3c(c(=O)[nH]c2=O)C(NC(=O)c2ccccc2F)(C(F)(F)F)C(=O)N3)cc1OC (stereo not given) |  | inactive: 1.67% |
| CC(C)Oc1ccccc1C1C=C(C(=O)O)Nc2ncnn21 (stereo not given) | inconclusive: 89.1 µM [inhibitor, single point] |  |
| CC(=O)Nc1ccc(SC[C@H](C)CN2CC[C@H](C(C)(C)C)CCC2=O)cc1 | inconclusive: 89.1 µM [inhibitor, single point] |  |
| O=C(COC(=O)c1cc(-c2cccs2)nn1-c1ccccc1)Nc1cccc([N+](=O)[O-])c1 | inconclusive: 17.8 µM [inhibitor, full curve] |  |
| COc1cc(C(C)=O)ccc1OCCCOc1cccc2cccnc12 | inconclusive: 89.1 µM [inhibitor, single point] |  |
| CCOC(=O)c1cnc(-n2cc(C)cn2)nc1NCc1ccc2c(c1)OCO2 | inconclusive: 1.58 µM [inhibitor, full curve, poor fit] |  |
| CCn1cc(CCC(=O)NCc2ccc(C)cc2)c2ccccc21 |  | inactive: -16.2% |
| CN1CCN(S(=O)(=O)c2ccc(CNC(=O)c3ccccc3)s2)CC1 |  | inactive: 1.58% |
| N#Cc1c(C(F)(F)F)cc(-c2cccc(Cl)c2)[nH]c1=O |  | inactive: 25.5% |
| CC(C)(C)OC(=O)N1CCC(c2c(C(=O)Nc3ccc4c(c3)OCCO4)cnn2-c2ccc(Cl)cc2)CC1 |  | inactive: -5.08% [at 57.1 µM] |
| CC(C)(C)OC(=O)[C@H](CCCCN)NC(=O)c1nc[nH]c1C(=O)NCCCCCN | inconclusive: 89.1 µM [inhibitor, single point] |  |
| COC(=O)C(Cc1c[nH]c2ccccc12)NC(=O)c1cccc(S(=O)(=O)N2CCCCC2)c1 (stereo not given) | inconclusive: 89.1 µM [inhibitor, single point] |  |

| Structure (SMILES) | Potency | activity change, negative = inhibition |
| --- | --- | --- |
| BrC(=C\c1ccccc1)/C=N/Nc1nc2ccccc2[nH]1 | inconclusive: 35.5 µM [inhibitor, full curve] |  |
| CCC1CCC2(CC1)NC(=O)N(CC(=O)Nc1ccc(OC)c(Cl)c1)C2=O (stereo not given) |  | inactive: 8.33% |
| COc1ccc(CCNC(=O)c2nnn(CC(=O)Nc3ccccc3)c2N)cc1OC | inconclusive: 89.1 µM [inhibitor, single point] |  |
| O=C(O)c1ccc2nc3c(nc2c1)-c1ccccc1C3=O | inconclusive: 56.2 µM [inhibitor, partial curve] |  |
| c1csc(CNCc2ccncc2)c1 |  | inactive: -18.7% |
| CN(Cc1ccc(C#CCCO)cc1)CC1CCCN(CCc2ccc(Cl)cc2)C1 (stereo not given) | inconclusive: 89.1 µM [inhibitor, single point] |  |
| Cc1c(C(=O)NCc2ccccc2Cl)sc2nc3n(c(=O)c12)CCCCC3 | inconclusive: 63.1 µM [inhibitor, partial curve, poor fit] |  |
| O=C(O)c1cccc(Nc2nc(-c3cc4ccccc4oc3=O)cs2)c1 | inconclusive: 79.4 µM [inhibitor, single point] |  |
| CCOC(=O)c1ccc(N2CCN(c3cc(C)ccc3C)CC2)c(NC(=O)Nc2ccc(CC)cc2)c1 |  | inactive: 1.91% |
| CC1(C)CC(=O)C2=C(C1)N1C(=C(C#N)C2c2ccccc2Cl)N=C(N)c2ccccc21 (stereo not given) | inconclusive: 44.7 µM [inhibitor, partial curve] |  |
| Cc1ccn2cc(CC(=O)O)nc2c1 | active: 56.2 µM |  |
| O=C(Nc1nc(-c2ccccn2)cs1)C1COc2ccccc2O1 (stereo not given) | active: 20 µM |  |
| Cc1sc2nc(SCCN(C)C)n(-c3ccccc3)c(=O)c2c1-c1ccc(F)cc1 | inconclusive: 79.4 µM [inhibitor, single point] |  |
| O=C(CSc1ccc(F)cc1)NCCc1ccc(Cl)cc1 |  | inactive: 1.6% |
| Cc1nnc(NC(=O)CN2CCN(Cc3ccccc3)CC2)s1 |  | inactive: -7.01% |
| COc1ccc(Cn2c(CO)cnc2SCc2ccc(F)cc2)cc1 | inconclusive: 28.2 µM [inhibitor, full curve] |  |
| C=CCOC(=O)C(C#N)c1nc2ccccc2nc1N1CCN(Cc2ccc3c(c2)OCO3)CC1 (stereo not given) | inconclusive: 39.8 µM [inhibitor, partial curve] |  |
| CCC(=O)N1N=C(c2ccccc2)CC1c1ccc([N+](=O)[O-])cc1 (stereo not given) | inconclusive: 89.1 µM [inhibitor, single point] |  |
| CNC(C)C#Cc1c(-c2cc(OC)c(OC)c(OC)c2)noc1C (stereo not given) | inconclusive: 79.4 µM [inhibitor, single point] |  |
| CCOc1ccc(C2C(C(=O)c3cccs3)=C(O)C(=O)N2Cc2cccnc2)cc1 (stereo not given) |  | inactive: 2.98% |
| Nc1cc(=O)[nH]c(SCC(=O)Nc2nc3ccc([N+](=O)[O-])cc3s2)n1 | inconclusive: 79.4 µM [inhibitor, partial curve] |  |
| O=C1N=C(N2CCN(c3ccccc3)CC2)S/C1=C\c1ccco1 | active: 50.1 µM |  |
